Reference: PubChem BioAssay AID445 (National Center for Advancing Translational Sciences (NCATS), 2006)
Among all 110,000 compounds or so, about 40 (0.04%) were called active. This list was built around the results that the source calls inconclusive (neither active nor inactive); the mix of calls is not that of the screen. Calls come from the whole dose curve; as a rule, active = well fitted curve in the direction sought with a large enough effect in the signal ratio (not every such curve was filed as active); inconclusive = small, poorly fitted or top-dose-only effect, or a change in a side signal; inactive = flat fitted curve, though single readings scatter; the % refers to the signal ratio. Potencies of inconclusive entries are doubtful fits and often do not repeat.

assay: IkB Signaling; conditions: ABC-DLBCL IkBa-CBG/CBR dual luciferase ratio (green luciferase fused to IkBa over red control in OCI-Ly3 lymphoma cells), 4 h; IkBa stabilization activation: at 57.1 µM (top of the series), scaled: untreated 0%, proteasome inhibitor 100% unless noted;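 for IkBa stabilization activation: 0% = basal untreated cells and 100% = reference inhibitor full response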
In short: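 In this assay, an IκBα–CBG68 fusion accumulates when IKK-driven degradation is blocked; native CBR normalizes for cell number. OCI-Ly3 cells were treated 4 h with compound and doxycycline, then green and red light read after Chroma-Glo addition.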
Potency is the fitted concentration of half-maximal effect.

| Compound | IkBa stabilization activation | Potency |
| --- | --- | --- |
| CCOc1ccccc1NC(=O)CN1C(=O)COc2ccc(S(=O)(=O)N3CCCCC3)cc21 | inconclusive: 0.176% [signal inhibitor] |  |
| Cc1cc(N2CCOCC2)nc2cc(O)ccc12 | inactive: -3.8% |  |
| O=C(c1ccc(Br)s1)N(Cc1cccnc1)c1nc2ccc(F)cc2s1 | inconclusive: 15.5% [signal inhibitor] |  |
| CCN1C(=O)CC(C(=O)Nc2ccc(F)cc2)SC1=Nc1cccc(OC)c1 (stereo unspecified) | inconclusive: 2.69% [signal inhibitor] |  |
| Cn1cc(C(c2ccccc2)c2ccc(Cl)s2)c2ccccc21 (stereo unspecified) | inconclusive: 2.92% [signal inhibitor] |  |
| CCOC(=O)c1oc2ccc(S(=O)(=O)N3CCC(C)CC3)cc2c1C | inactive: 0.298% |  |
| COC(=O)COc1ccc(S(=O)(=O)NCCC2=CCCCC2)cc1C | inactive: 5.86% |  |
| CCn1c(=O)n(CC(=O)N(C)Cc2ccccc2)c(=O)c2ccccc21 | inconclusive: 9.97% [signal inhibitor] |  |
| C1CCN(CC[C@@H]2CCCCN2)CC1 | inactive: 0.0379% [at 11.4 µM, scaled: untreated 0%, proteasome inhibitor 100%] |  |
| CCc1ccc2oc(-c3ccc(N)cc3)nc2c1 |  | inconclusive: 6.31 µM [signal inhibitor, partial curve] |
| CCc1ccccc1NC(=O)c1cc2nc(-c3ccc(OC)c(OC)c3)cc(C(F)(F)F)n2n1 | inactive: -3.32% |  |
| CCCc1cc(C(=O)N(C2CCCCC2)C2CCCCC2)no1 | inactive: 7.88% |  |
| CCOCCCNC(=O)c1c(NC(=O)c2cc(=O)c3ccccc3o2)sc2c1CCC2 | inconclusive: 0.571% [signal inhibitor] |  |
| COc1ccccc1N1CCN(C(=O)Nc2cn(CC(C)C)c(=O)c3ccccc23)CC1 | inconclusive: 0.187% [signal inhibitor] |  |
| Cc1occc1-c1nnc(SCC(=O)Nc2ccc(F)cc2)n1Cc1ccccc1 | inconclusive: 1.81% [signal inhibitor] |  |
| CC(C)C(=O)Nc1cccc(C(=O)Nc2nnc(CC(C)(C)C)s2)c1 | inconclusive: 0.939% [signal inhibitor] |  |
| CS(=O)(=O)Nc1cccc(-c2nc(Nc3ccc(F)cc3)c3ccccc3n2)c1 | inconclusive: -8.27% [signal inhibitor] [at 11.4 µM, scaled: untreated 0%, proteasome inhibitor 100%] |  |
| Cc1ccc(C)c(N2CCN(C(=O)CC3Sc4ccccc4NC3=O)CC2)c1 (stereo unspecified) | inconclusive: -5.05% [signal inhibitor] |  |
| COc1cc2ccccc2cc1C(=O)Nc1ccc2oc(-c3ccc(Cl)cc3)nc2c1 | inactive: -0.159% |  |
| COC(=O)c1ccc(C)c(NS(=O)(=O)c2ccc3c(c2)OCCO3)c1 | inactive: 2.86% |  |
| O=C(Nc1ccc(C(=O)OCc2cc(=O)n3c4c(sc3n2)CCCC4)cc1)c1ccc(Cl)cc1 | inactive: 2.83% |  |
| CC(C)c1ccc(NC(=O)Nc2csc3c2CCCC3)cc1 | inconclusive: 2.54% [signal inhibitor] |  |
| CCCCN(C)CC(O)Cn1cc(/C=C/C(=O)c2ccc(C)cc2)c2ccccc21 (stereo unspecified) | inconclusive: -3.8% [signal inhibitor] |  |
| Cc1cccc(Cn2c(N(C)Cc3ccccc3)nc3c2c(=O)[nH]c(=O)n3C)c1 | inactive: 5.04% |  |

| Compound | IkBa stabilization activation | Potency |
| --- | --- | --- |
| COc1ccc(NC(=O)c2c(NCc3cccs3)sc3c2CCCC3)cc1 | inconclusive: 3.72% [signal inhibitor] |  |
| Cc1cccc(N2CCN(C(=O)C3CCCN(S(=O)(=O)c4ccc5c(c4)oc(=O)n5C)C3)CC2)c1C (stereo unspecified) | inconclusive: 4.98% [signal inhibitor] |  |
| CCC(C)N1CC(O)=C(c2nc3ccccc3[nH]2)C1=N (stereo unspecified) |  | inconclusive: 39.8 µM [rising, single point] |
| Cc1oc2ccc(O)c(CN3CCCC3)c2c1C(=O)Nc1ccccc1 | inactive: -2.53% |  |
| O=[N+]([O-])c1ccc(CSCc2ccc(Cl)cc2)cc1 | inactive: 0.894% [at 11.4 µM, scaled: untreated 0%, proteasome inhibitor 100%] |  |
| c1ccc(CN2CCN(c3nc4ccccc4n4cnnc34)CC2)cc1 | inactive: -3.07% |  |
| Cc1ccc(-n2ncc(C(=O)NCc3cccs3)c2C2CCN(C(=O)OC(C)(C)C)CC2)cc1 | inconclusive: -0.00729% [signal inhibitor] |  |
| S=C(S)NCCCn1ccnc1 | inactive: -0.432% [at 11.4 µM, scaled: untreated 0%, proteasome inhibitor 100%] |  |
| CCOC(=O)c1cccc(NC(=O)c2cnc3ccccc3n2)c1 | inactive: 0.974% |  |
| COc1ccccc1NC(=O)C(C)Sc1nnc2ccc3ccccc3n12 (stereo unspecified) | inconclusive: 1.15% [signal inhibitor] |  |
| CCc1cccc2c(-c3ccccc3)nc(SCC(=O)Nc3ccccc3OC)nc12 | inconclusive: -1.67% [signal inhibitor] |  |
| O=C(Nc1ccccc1)N1CC[C@@]2(CCCN(C(=O)c3cc(C(F)(F)F)cc(C(F)(F)F)c3)C2)C1 | inactive: -1.42% [at 11.4 µM, scaled: untreated 0%, proteasome inhibitor 100%] |  |
| Cc1cnc(CNc2ccnc(-c3cccnc3)n2)cn1 | inactive: 2.07% [at 11.4 µM, scaled: untreated 0%, proteasome inhibitor 100%] |  |
| COCCNc1ncnc2ccc(-c3ccc(N(C)C)cc3)cc12 | inactive: -2.32% [at 11.4 µM, scaled: untreated 0%, proteasome inhibitor 100%] |  |
| COc1ccc(OC)c(N/C(=N\c2nc(C)cc(C)n2)NC(=O)c2ccco2)c1 | inactive: -1.35% |  |
| Nc1c(C(=O)NCCN2CCOCC2)c2nc3ccccc3nc2n1CCc1ccccc1F | inconclusive: -1.62% [signal inhibitor] |  |
| COc1cc(C2N(c3ccccc3)CCN2c2ccccc2)cc(OC)c1OC | inactive: 0.217% |  |
| COc1ccc(OCC(=O)N2CCC(c3nc4ccccc4s3)CC2)cc1 | inconclusive: 1.98% [signal inhibitor] |  |
| CCOc1cc(C(=O)NCc2ccc3c(c2)CCN3C(=O)c2ccc(F)cc2)cc(OCC)c1OCC | inactive: -3.19% |  |
| O=C(NC1CCCC1)c1ccc(CSc2nc3ccncc3n2Cc2cccc(F)c2)cc1 | inconclusive: 2.61% [signal inhibitor] |  |
| COc1cc2c(cc1OC)-c1cc(OCCN3CCOCC3)nc(=O)n1CC2 | inactive: -1.8% |  |
| O=C(OCCCCN1C(=O)c2ccccc2C1=O)c1n[nH]c2ccccc12 | inconclusive: 3.87% [signal inhibitor] |  |
| O=C(NCC(=O)N(c1cccnc1)C(C(=O)NC1CCCC1)c1ccco1)c1cccs1 (stereo unspecified) | inactive: 0.979% |  |
| CC(=O)N1c2ccccc2C(=O)OC1c1cccnc1 (stereo unspecified) | inactive: -0.348% |  |

| Compound | IkBa stabilization activation | Potency |
| --- | --- | --- |
| CCn1ccc2cc(S(=O)(=O)N3CCC(C(=O)NCCc4ccccc4Cl)CC3)ccc21 | inconclusive: 0.359% [signal inhibitor] |  |
| CCc1ccc(C(=O)c2cnc3ccc(F)cc3c2S(=O)(=O)c2ccccc2)cc1 |  | inconclusive: 20 µM [signal inhibitor, partial curve] |
| Cc1c2cnn(CC(=O)NCC(C)c3ccccc3)c(=O)c2c(C)n1Cc1cccc(Cl)c1 (stereo unspecified) | inactive: -1.1% |  |
| COc1ccccc1Cn1cc(C(=O)c2ccc(Cl)cc2)c(=O)c2ccccc21 | inconclusive: 4.5% [signal inhibitor] |  |
| Cc1ccc(C)c(NC(=O)Cn2nnc(C(=O)NCc3ccccc3Cl)c2N)c1 | inactive: 1.56% |  |
| CC(=O)N1CCCc2cc(S(=O)(=O)N(C)CCC#N)ccc21 | inactive: -0.999% |  |
| CCN(CC)C(=O)C1CCCN(c2ncnc3c2cnn3-c2cccc(C)c2)C1 (stereo unspecified) | inconclusive: 1.52% [signal inhibitor] |  |
| Brc1ccc(-c2csc(/N=C/N3CCOCC3)n2)cc1 | inconclusive: 2.04% [signal inhibitor] |  |
| COc1ccc(C(=O)N(Cc2cc(OC)c(OC)c(OC)c2)c2ccccn2)cc1 | inconclusive: -0.231% [signal inhibitor] |  |
| O=C(Cn1c(=O)nc(-c2ccccc2)c2ccccc21)NCCc1ccc(Cl)cc1 | inconclusive: 2.56% [signal inhibitor] |  |
| COc1ccc(C(=O)Oc2ccc(C(C)=O)cc2)c(OC)c1 | inactive: -1.37% |  |
| COc1ccc(NC(=O)c2sc3nc(-c4cc5ccc(OC)cc5oc4=O)[nH]c(=O)c3c2C)cc1 | inactive: -0.226% |  |
| O=C(COc1ccccc1)Nc1ccccc1N1CCN(c2ccc(F)cc2)CC1 | inactive: 1.72% |  |
| CC1Cc2cc(S(=O)(=O)CCC(=O)NCc3ccc(Cl)cc3)ccc2N1C(=O)C1CC1 (stereo unspecified) | inconclusive: -1.4% [signal inhibitor] |  |
| COc1ccccc1-c1nc(C(N)=O)c2[nH]c(=O)n(-c3cccc(C)c3)c2n1 | inactive: -0.767% |  |
| COC(=O)c1cc(NS(=O)(=O)c2ccc3c(c2)CCC(=O)N3)cc(C(=O)OC)c1 | inconclusive: 8% [signal inhibitor] |  |
| CC(C)CC(c1nnnn1CC1CCCO1)N1CCN(c2cccc(Cl)c2)CC1 (stereo unspecified) | inactive: 1.75% |  |
| Cc1ccc(Cl)cc1NS(=O)(=O)c1ccc2c(c1)NC(=O)CCS2 | inconclusive: 2.42% [signal inhibitor] |  |
| NC(=O)c1cccc2c3c([nH]c12)CCCC3 | inactive: 6.58% |  |
| COc1ccccc1OCCCSc1nc(-c2ccc(C(C)(C)C)cc2)nc2cc(=O)[nH]n12 | inconclusive: 1.9% [signal inhibitor] |  |
| COc1ccccc1CNC(=O)C1CCCN(C(=O)c2cnn(-c3ccc(F)cc3)c2-n2cccc2)C1 (stereo unspecified) | inconclusive: 1.21% [signal inhibitor] |  |
| CCCn1c(CN2CCCCC2CC)nc2c1c(=O)n(C)c(=O)n2C (stereo unspecified) |  | inconclusive: 25.1 µM [rising, partial curve] |
| Cc1ccc(NC(=O)C(Cc2ccccc2)n2cccc2)cc1 (stereo unspecified) | inconclusive: 0.663% [signal inhibitor] |  |
